Measured values: PubChem BioAssay AID504466 (National Center for Advancing Translational Sciences (NCATS), 2011)
Out of some 330,000 compounds screened, about 4,200 (1.3%) were called active. Inconclusive means that the source gave no clear call. Such entries were picked first, then a sample of the others. The call rests on the fitted dose curve; in most records, active means well fitted activation curve with a large enough effect; inconclusive means small, poorly fitted or top-dose-only effect; inactive means no such curve, though single readings can be large or run the other way. Potencies of inconclusive entries are doubtful fits and often do not repeat.
Potency means the concentration at half of the fitted maximal effect; tags describe the fitted curve by direction and shape.

Assay: qHTS screen for small molecules that induce genotoxicity in human embryonic kidney (HEK293T) cells expressing luciferase-tagged ELG1; further: nearly all actives have a fitted effect of over 60% in size; on activity change, positive = activation: % of control where 0% means no effect
Details: HEK293T ELG1-luciferase reporter, luminescence, 16 h; series mostly up to 46 µM; activity change, positive = activation: at the top concentration
How it was run: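 Reporter readout depends on ELG1 protein level, which increases with genetic stress. After 16 hr compound exposure at 37 °C, luciferase activity was quantified using ONE-Glo.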
In the case of `O=C(Nc1ccc(OC(F)F)c(Cl)c1)c1ccccn1`, the Potency is reported as active: 2.31 µM. For `Cc1ccc2nc(Nc3nc(-c4ccccc4)cc(=O)[nH]3)nc(C)c2c1`, the Potency was inconclusive: 25.9 µM [activator, partial curve, poor fit]. For `COc1c(C(=O)NNC(=O)c2ccccc2)csc1Br`, the Potency was inconclusive: 14.6 µM [activator, partial curve]. With `CCOC(=O)/C=c1\s/c(=C\c2ccc(C)cc2)c(=O)n1CC(=O)NCc1ccco1` the Potency was inconclusive: 23.1 µM [activator, single point]. With `COc1ccc2cc(-c3ccccc3)c(=O)oc2c1` the Potency was active: 2.59 µM. With `COCCCN1C(=O)C(=O)/C(=C(/O)c2ccc(S(=O)(=O)N3CCCCC3)cc2)C1c1ccc(O)cc1` (configuration not stated) the “activity change, positive = activation” value was inactive: 0.132%. With `O=[N+]([O-])c1cc(/C=N/Nc2nc3ccccc3[nH]2)c(O)cc1O` the Potency was inconclusive: 25.9 µM [activator, single point]. In the case of `O=C(Nc1ccc(Cl)c(Cl)c1)Nc1ccccc1O`, the Potency is reported as inconclusive: 4.11 µM [activator, full curve, poor fit]. With `COC(=O)c1cnn(-c2ccccc2)c1N` the “activity change, positive = activation” value was inactive: 2.48%. With `O=C(CCNC(=O)c1ccco1)NCCc1ccc(Cl)cc1` the Potency was inconclusive: 18.3 µM [activator, partial curve, poor fit]. For `Cc1ccc(NC(=S)c2ccc3ccccc3n2)c(C)c1`, the Potency was inconclusive: 9.2 µM [activator, partial curve]. In the case of `Cn1cccc1-c1cc(C(=O)N/N=C/c2ccccc2Cl)[nH]n1`, the Potency is reported as inconclusive: 13 µM [activator, partial curve]. For `COCC(=O)Nc1ccc(N(C)C)cc1`, the Potency was inconclusive: 20.6 µM [activator, single point]. With `CN(C)c1ccc(/C=C2\SC(=O)N(CCc3nnc(N)s3)C2=O)cc1` the Potency was inconclusive: 0.164 µM [activator, full curve]. For `Cc1csc2nc(NC(=O)c3ccccc3)sc(=O)c12`, the Potency was inconclusive: 23.1 µM [activator, partial curve, poor fit]. With `COc1cccc(NC(=O)CN(C)CC(=O)Nc2ccc3c(c2)OCO3)c1` the “activity change, positive = activation” value was inactive: 0.162%. In the case of `Cc1ccc2c(c1)C(c1ccncc1)=NNC(c1ccccc1)=N2`, the “activity change, positive = activation” value is reported as inactive: 6.73%. In the case of `O=C(CSC(=S)N1CCSCC1)c1ccc(Cl)cc1`, the Potency is reported as inconclusive: 2.91 µM [activator, single point]. For `Cc1cc(N2CCOCC2)ccc1/C=C1\SC(=O)N(C(C)C)C1=O`, the Potency was inconclusive: 2.59 µM [activator, partial curve]. In the case of `COc1ccc(C(=O)Nc2ccc(NC(=O)c3ccco3)cc2)cc1`, the Potency is reported as inconclusive: 20.6 µM [activator, single point]. In the case of `Fc1ccccc1-c1nc(-c2ccncc2)no1`, the Potency is reported as inconclusive: 1.3 µM [activator, partial curve, poor fit]. For `COc1ccc(C(=O)NCCSC2CCCCC2)cc1`, the Potency was inconclusive: 16.4 µM [activator, partial curve]. In the case of `CC1CCCC(C)N1C(=O)CSc1nc2ccccc2s1` (configuration not stated), the Potency is reported as inconclusive: 18.4 µM [activator, partial curve, poor fit]. In the case of `Cc1ccccc1N1CCN(C2CCCN(C(=O)CCn3cnnn3)C2)CC1` (configuration not stated), the “activity change, positive = activation” value is reported as inactive: 1.02%. In the case of `CC1CCN(CCNC(=O)c2ccc3c(=O)n(Cc4ccc(Cl)cc4)c(=S)[nH]c3c2)CC1`, the Potency is reported as inconclusive: 32.6 µM [activator, partial curve, poor fit]. For `O=c1c2cccc3c(N4CCOCC4)ccc(c32)c2nc3ccccc3n12`, the Potency was inconclusive: 5.17 µM [activator, full curve, poor fit]. With `Cc1cnc(NC(=O)CN2CCN(c3ccccn3)CC2)s1` the Potency was inconclusive: 6.51 µM [activator, partial curve, poor fit]. With `COc1ccc2[nH]c3c(c2c1)CCN1C(=O)C(CC(=O)NCCC2=CCCCC2)C[C@H](C(=O)N2CCCCC2)[C@@]31CCc1ccccc1` (some centres not stated) the Potency was inconclusive: 32.6 µM [activator, partial curve, poor fit]. With `Cc1cccc(NC(=O)COc2ccccc2C)n1` the Potency was active: 18.4 µM. In the case of `Cc1ccc(CNC(=O)[C@H](C)NC(=O)C2CCN(C(=O)[C@@H]3CCCN3C(=O)OC(C)(C)C)CC2)cc1`, the “activity change, positive = activation” value is reported as inactive: -0.49%. In the case of `CN(C)c1ccc(C(=O)NNC(=O)C23CC4CC(CC(C4)C2)C3)cc1`, the “activity change, positive = activation” value is reported as inactive: 11.2%. For `CCOC(=O)c1cnc(NCc2ccccc2)nc1C`, the Potency was active: 14.6 µM. In the case of `CCc1cccc(C)c1NC(=S)N(CCCN1CCOCC1)Cc1cccnc1`, the Potency is reported as inconclusive: 0.0291 µM [activator, single point]. With `Brc1ccc(OCc2cn3ccccc3n2)cc1` the Potency was inconclusive: 4.61 µM [activator, partial curve]. With `CC(C)C1COC(c2cccc3ccccc23)=N1` (configuration not stated) the Potency was active: 20.6 µM. For `N#CCCn1cc(/C=C2\NC(=S)N(c3ccccc3)C2=O)c(-c2ccc(-c3ccccc3)cc2)n1`, the Potency was inconclusive: 25.9 µM [activator, partial curve, poor fit]. For `CC(C)(C)c1ccc(C(=O)NCCc2ccccc2)cc1`, the Potency was inconclusive: 1.64 µM [activator, partial curve]. For `CCCc1nnc(NC(=O)C2CCCO2)s1` (configuration not stated), the Potency was inconclusive: 25.9 µM [activator, partial curve, poor fit]. For `O=C(Nc1cnc2sccn2c1=O)c1ccccc1Cl`, the Potency was active: 18.4 µM. In the case of `COc1ccc(CNC(=O)Cc2cccs2)cc1`, the Potency is reported as inconclusive: 18.3 µM [activator, partial curve, poor fit]. With `CN(c1ccc(C(=O)Nc2ccccc2C(F)(F)F)cc1)S(C)(=O)=O` the Potency was inconclusive: 18.4 µM [activator, partial curve, poor fit]. For `O=C(c1ccc2nc(Cc3ccccc3F)oc2c1)N1CCCC1`, the Potency was active: 10.3 µM. With `COc1cccc(/C=N/n2cnc3ccccc32)c1OC` the Potency was active: 2.59 µM. With `COc1ccc(-c2nn(-c3ccccc3)cc2C(=O)N/N=C/c2ccc([N+](=O)[O-])o2)cc1` the Potency was inconclusive: 5.8 µM [activator, single point]. In the case of `Cc1ccc(NC(=O)C2=NNC(=O)CC2)cc1F`, the “activity change, positive = activation” value is reported as inactive: 8.28%. In the case of `COCCN(C(=O)C1CC(=O)N(Cc2ccccc2)C1)c1nc(-c2ccc([N+](=O)[O-])cc2)cs1` (configuration not stated), the “activity change, positive = activation” value is reported as inactive: -1.75%. With `Cc1ccc2cc(CCNC(=O)Cc3cccs3)c(=O)[nH]c2c1` the “activity change, positive = activation” value was inactive: -1.39%. For `O=C1ON=C(c2ccccc2)/C1=C/c1ccc(O)c(O)c1`, the Potency was inconclusive: 18.3 µM [activator, single point]. With `CCOc1ccc(-c2c(C(=O)N/N=C/c3cccc(Br)c3)nnn2-c2nonc2N)cc1` the Potency was inconclusive: 32.6 µM [activator, partial curve, poor fit]. With `CCN1C(=O)CC(N2CCN(c3ccc(C(=O)c4ccncc4)cc3)CC2)C1=O` (configuration not stated) the “activity change, positive = activation” value was inactive: -22.2%. For `O=C(CCSc1ccccc1)Nc1ccccc1Br`, the Potency was inconclusive: 10.3 µM [activator, partial curve, poor fit]. With `O=C(Nc1nccs1)C1CC(=O)N(c2ccccc2)C1` (configuration not stated) the “activity change, positive = activation” value was inactive: -1.54%. In the case of `CSc1nnc(-c2cc3c(s2)-c2ccccc2CC3)o1`, the Potency is reported as inconclusive: 8.2 µM [activator, partial curve, poor fit]. In the case of `CC(c1ccccc1)c1nnc(N)s1` (configuration not stated), the “activity change, positive = activation” value is reported as inactive: 0.433%. For `COc1ccccc1NC(=O)c1ccc(NC(=O)c2ccc(=O)[nH]c2)cc1`, the “activity change, positive = activation” value was inactive: 3.65%. In the case of `COc1cccc2sc(N3CCN(c4nc5ccccc5s4)CC3)nc12`, the Potency is reported as inconclusive: 20.6 µM [activator, partial curve, poor fit]. In the case of `CCN=C1NN=C(c2c[nH]c3ccccc23)CS1`, the Potency is reported as inconclusive: 2.91 µM [activator, full curve]. In the case of `CCn1c(SCC(=O)Nc2nc(-c3ccc(C)cc3)cs2)nnc1-c1ccccc1`, the “activity change, positive = activation” value is reported as inactive: -9.67%. With `CC(=O)Oc1ccc(-c2nc(-c3cccnc3)no2)cc1` the Potency was active: 5.8 µM. With `COc1ccc(N/N=C(/C)c2cnnc(-c3ccccc3)n2)cc1` the Potency was inconclusive: 9.2 µM [activator, partial curve, poor fit]. For `Cc1ccc(-c2ccc(OCC(=O)N3CCOCC3)cc2)cc1`, the Potency was inconclusive: 16.4 µM [activator, single point]. With `Cc1cccc(-n2ncc3c(N)ncnc32)c1` the Potency was inconclusive: 29.1 µM [activator, partial curve, poor fit]. For `O=C(COC(=O)Cc1n[nH]c(=O)c2ccccc12)Nc1ccc(Cl)cn1`, the “activity change, positive = activation” value was inactive: 1.07%. With `CC1CCCN(c2ccc(C(=O)NCCc3ccccc3)cn2)C1` (configuration not stated) the Potency was inconclusive: 1.64 µM [activator, partial curve, poor fit]. For `COc1ccc(/C(C)=N/N2C(=O)c3ccccc3NC2c2ccc(O)c(OC)c2)cc1` (configuration not stated), the Potency was inconclusive: 23.1 µM [activator, partial curve, poor fit]. For `N/C(=N\OC(=O)c1cccc(Br)c1)c1ccc([N+](=O)[O-])cc1`, the “activity change, positive = activation” value was inactive: 2.07%. For `CC(C)(O)C#Cc1ccc(CN2CCCC(CNC(=O)c3ccco3)C2)cc1` (configuration not stated), the “activity change, positive = activation” value was inactive: 1.95%. In the case of `Cc1ccc2nc(CSc3nc(C)cc(C)c3C#N)[nH]c2c1`, the Potency is reported as inconclusive: 3.66 µM [activator, partial curve, poor fit]. With `O=C(Nc1cccc2ncccc12)c1ccc2c(c1)OCCO2` the Potency was inconclusive: 23.1 µM [activator, partial curve, poor fit]. In the case of `CCn1nc(C)c(/C=N/NC(=O)Cn2nccc2C)c1C`, the Potency is reported as inconclusive: 23.1 µM [activator, single point]. In the case of `C=CCNC(=O)C1CC2Cn3c(nc4cc(Cl)c(Cl)cc43)C2N1C` (configuration not stated), the “activity change, positive = activation” value is reported as inactive: 2.28%. For `COc1ccc(/C=N/Nc2ncccc2[N+](=O)[O-])c(OC)c1`, the Potency was active: 2.59 µM.
